Experimental data published in PubChem BioAssay AID1240 (Sanford-Burnham Center for Chemical Genomics, 2008).
Out of some 50,000 compounds screened, about 800 (1.6%) showed an effect of 50% or more. Some of the results follow.

Molecular target: Bcl-2-like protein 10 (Homo sapiens) (UniProt Q9HD36)
Experiment: TR3 peptide-Bcl-B binding displacers, biochemical primary FP assay, phenotype converters (AID 1240);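 note: 0% = Bcl-B with tracer peptide and DMSO and 100% = tracer peptide lacking Bcl-B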
Details: GST-Bcl-B / FITC-TR3 peptide fluorescence polarization; stronger effect = higher value; compound at 3.75 mg/L

Sequence of UniProt Q9HD36 (Q9HD36 whole entry, looked up): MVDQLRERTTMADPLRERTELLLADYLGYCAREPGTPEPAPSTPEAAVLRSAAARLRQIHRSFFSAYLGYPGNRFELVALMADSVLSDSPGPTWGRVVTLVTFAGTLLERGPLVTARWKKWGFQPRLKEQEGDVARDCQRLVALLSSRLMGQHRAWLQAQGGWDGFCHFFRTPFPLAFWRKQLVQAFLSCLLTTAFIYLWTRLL

Row | Structure (SMILES) | displacement [%]
1 | Cc1ccc(S(=O)(=O)N(CC(=O)Nc2ccccc2F)c2cccc(Br)c2)cc1 | -10.5
2 | C#Cc1cccc(NC(=O)c2cccc(N3C(=O)c4ccc(Oc5cccc([N+](=O)[O-])c5)cc4C3=O)c2)c1 | 5.1
3 | CC(=O)c1ccc(NC(=S)NC(NC(=O)c2ccc(Cl)cc2Cl)C(Cl)(Cl)Cl)cc1 (stereo not drawn) | 12.1
4 | COc1ccc2oc(=O)c(C(=O)Nc3ccc(C)cc3C)cc2c1 | 5.3
5 | COc1ccc(NC(=O)C(=O)NCC(C)C)cc1Cl | 8.5
6 | COc1ccccc1NC(=O)C1=C(C)NC(=S)NC1c1ccc([N+](=O)[O-])cc1 (stereo not drawn) | -3.2
7 | O=C(COc1ccc2c(-c3ccccc3)cc(=O)oc2c1)OCc1ccccc1 | 10.1
8 | CCCOc1cccc(C(=O)Nc2ccc3c(c2)OCCO3)c1 | -12.5
9 | CCCCCCCCS(=O)(=O)c1sc2nc(C)cc(C)c2c1N | -6.7
10 | Clc1ccc(-c2noc(C(c3ccccc3)c3ccccc3)n2)cc1 | 8.1
11 | COC(=O)c1c(C)oc2ccc(OCc3ccccc3Br)cc12 | 9.3
12 | CC(C)CNC(=O)c1ccccc1NC(=O)C(c1ccccc1)c1ccccc1 | 12.6
13 | COc1ccc(/C=C2\SC(N3CCCCCC3)=NC2=O)cc1OC | -1.9
14 | Cc1ccc(C(=O)N2CCN(S(=O)(=O)c3ccccc3[N+](=O)[O-])C2)cc1 | 20
15 | C=CCN1C(=O)/C(=C\c2cccc(OC)c2)SC1=Nc1ccccc1 | 4.6
16 | CCn1nnnc1-c1ccc(OC)c(S(=O)(=O)Nc2ccc(Cl)cc2)c1 | 9.3
17 | O=C(Nc1cc(C(F)(F)F)ccc1Cl)c1nc2nc(-c3ccccc3)cc(C(F)(F)F)n2n1 | 9.6
18 | COc1cc2c(cc1OC)C(CC(=O)Nc1ccc(C)cc1C)=NC(C)(C)C2 | 15.7
19 | Cc1c(Cl)cccc1NC(=O)C(=O)NCCCO | 3.9
20 | COC(=O)c1c(N)sc(C(=O)Nc2ccccc2C)c1C | -3.8
21 | O=C(Nc1ccccc1)C12CC3CC(CC(C3)C1)C2 | 17.4
22 | CC1CCCN(Cc2c(O)ccc3cc(-c4nc5ccccc5[nH]4)c(=O)oc23)C1 (stereo not drawn) | 106
23 | COc1cc(C=Nc2ccc(-c3ccc(N=Cc4ccc(OC(C)=O)c(OC)c4)c(C)c3)cc2C)ccc1OC(C)=O | 11.2
24 | Cc1nnc(NC(=O)CN2C(=O)/C(=C/c3cccc(Br)c3)SC2=S)s1 | 9.6
25 | O=C1NN(c2ccccc2)C(=O)/C1=C/c1ccc(-c2ccc(C(=O)O)cc2)o1 | 29.5
26 | C=C(C)CNC(=S)Nc1sc(CC)cc1C(=O)OCC | 1.8
27 | O=C(O)CCn1c(=O)c2cc3c(=O)n(CCC(=O)O)c(=O)c3cc2c1=O | -3.8
28 | COc1ccc(CNC(=O)c2nn3c(c2Cl)NC(c2ccco2)CC3C(F)(F)F)cc1 (stereo not drawn) | 8.3
